Assay results reported in the supplement of paper PMC6089552.
In all, about 3,200 compounds went through this assay and about 300 (9.4%) showed activity. This is a selection; strong and weak results do not stand in their true shares.

Tested on: A673/TR/shEF
Assay: cell viability (LOESS-normalised, relative to median of negative controls) (log2 ratio); higher = more viable cells (less compound effect), active = hit call of the paper (over 3 MAD below the median)
Conditions: treatment time: 72 h
Method in brief: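 Doxycycline, present or absent from 24 h before compounds, was used to induce EWS-FLI1 shRNA knockdown in A673/TR/shEF Ewing sarcoma cells at 1,500 per well in 384-well plates. Cells then received library compounds at two or more concentrations, or DMSO controls, for three days. Viability was measured by CellTiter-Glo luminescence on an Envision reader, and per-plate LOESS correction, division by the negative-control median and log2 transformation followed.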

[1] = 0.25 µM, library screen: screen1, EWS-FLI1 expression: high (no doxycycline)
[2] = 0.25 µM, library screen: screen1, EWS-FLI1 expression: low (doxycycline-induced shRNA knockdown)
[3] = 2.5 µM, library screen: screen1, EWS-FLI1 expression: high (no doxycycline)
[4] = 2.5 µM, library screen: screen1, EWS-FLI1 expression: low (doxycycline-induced shRNA knockdown)
[5] = 0.103 µM, library screen: screen3, EWS-FLI1 expression: high (no doxycycline)
[6] = 0.103 µM, library screen: screen3, EWS-FLI1 expression: low (doxycycline-induced shRNA knockdown)
[7] = 0.25 µM, library screen: screen2, EWS-FLI1 expression: high (no doxycycline)
[8] = 0.25 µM, library screen: screen2, EWS-FLI1 expression: low (doxycycline-induced shRNA knockdown)
[9] = 0.308 µM, library screen: screen3, EWS-FLI1 expression: high (no doxycycline)
[10] = 0.308 µM, library screen: screen3, EWS-FLI1 expression: low (doxycycline-induced shRNA knockdown)
[11] = 0.926 µM, library screen: screen3, EWS-FLI1 expression: high (no doxycycline)
[12] = 0.926 µM, library screen: screen3, EWS-FLI1 expression: low (doxycycline-induced shRNA knockdown)
[13] = 2.5 µM, library screen: screen2, EWS-FLI1 expression: high (no doxycycline)
[14] = 2.5 µM, library screen: screen2, EWS-FLI1 expression: low (doxycycline-induced shRNA knockdown)
[15] = 2.8 µM, library screen: screen3, EWS-FLI1 expression: high (no doxycycline)
[16] = 2.8 µM, library screen: screen3, EWS-FLI1 expression: low (doxycycline-induced shRNA knockdown)
[17] = 8.3 µM, library screen: screen3, EWS-FLI1 expression: high (no doxycycline)
[18] = 8.3 µM, library screen: screen3, EWS-FLI1 expression: low (doxycycline-induced shRNA knockdown)
[19] = 25 µM, library screen: screen3, EWS-FLI1 expression: high (no doxycycline)
[20] = 25 µM, library screen: screen3, EWS-FLI1 expression: low (doxycycline-induced shRNA knockdown)

Measured: cell viability (log2)

CC(=O)N[C@@H]1[C@@H](O)[C@H](O)[C@@H](CO)O[C@H]1O
inactive: [1] 0.0385 | [2] 0.0648 | [3] 0.0809 | [4] 0.0429

NNc1nncc2ccccc12
inactive: [5] 0.0359 | [6] 0.035 | [1] 0.0397 | [2] -0.0283 | [7] 0.173 | [8] 0.0299 | [9] -0.00515 | [10] -0.000379 | [11] 0.0532 | [12] 0.0993 | [3] 0.219 | [4] 0.162 | [13] 0.0604 | [14] 0.0341 | [15] 0.0825 | [16] 0.0408 | [17] 0.1 | [18] 0.121 | [19] 0.0768 | [20] 0.0926

NCC(O)CC(=O)O (stereo not drawn)
inactive: [1] 0.135 | [2] 0.0702 | [3] 0.0842 | [4] 0.0568

O=C(/C=C/c1ccc(O)c(O)c1)OCCc1ccccc1
active: [13] -0.129

COc1c2occc2c(OC)c2c(=O)cc(C)oc12
inactive: [1] 0.0471 | [2] -0.0285 | [3] 0.104 | [4] -0.00533

O=C1CC(Nc2ccc(N3CCOCC3)cc2)C(=O)N1c1cccc(C(F)(F)F)c1 (stereo not drawn)
inactive: [1] 0.0229 | [2] 0.0506 | [3] 0.0998 | [4] 0.15

C1CNCCN1
inactive: [1] 0.0889 | [2] 0.0996 | [3] 0.0462 | [4] 0.137

Nc1cc(C(Cl)=C(Cl)Cl)c(S(N)(=O)=O)cc1S(N)(=O)=O
inactive: [5] -0.128 | [6] 0.0273 | [9] -0.0348 | [10] 0.0538 | [11] -0.00415 | [12] 0.0607 | [15] 0.0637 | [16] 0.0856 | [17] 0.0769 | [18] 0.073 | [19] 0.0282 | [20] 0.11

COc1ccc(CCN(C)CCCC(C#N)(c2cc(OC)c(OC)c(OC)c2)C(C)C)cc1OC (stereo not drawn)
inactive: [7] 0.0904 | [8] 0.0375 | [13] 0.0541 | [14] 0.0521

CC[C@H](C)C(=O)O[C@H]1CCC=C2C=C[C@H](C)[C@H](CC[C@@H]3C[C@@H](O)CC(=O)O3)[C@H]21
inactive: [1] 0.147 | [2] 0.00215 | [7] 0.167 | [8] 0.108 | [3] 0.0603 | [4] -0.0998 | [13] 0.145 | [14] 0.0674

COC(=O)/C=C/C(C)=C\C=C\C(C)=C\C=C\C=C(C)\C=C\C=C(C)\C=C\C(=O)O
inactive: [1] -0.0751 | [2] 0.068 | [3] 0.0815 | [4] 0.0619

CC(=O)[C@]1(O)Cc2c(O)c3c(c(O)c2[C@@H](O[C@H]2C[C@H](N)[C@H](O)[C@H](C)O2)C1)C(=O)c1ccccc1C3=O
active: [7] -2.37 | [8] -0.307 | [13] -3.12 | [14] -0.984

O=c1oc2ccccc2c(O)c1Cc1c(O)c2ccccc2oc1=O
inactive: [1] 0.0318 | [2] 0.0542 | [3] 0.13 | [4] 0.103

CN1CCN(CCCN2c3ccccc3Sc3ccc(Cl)cc32)CC1
inactive: [1] 0.0634 | [2] 0.114 | [7] 0.165 | [8] 0.0998 | [3] 0.163 | [4] 0.21 | [13] 0.085 | [14] 0.0319

N=c1c[n+](N2CCOCC2)[n-]o1
inactive: [7] 0.148 | [8] 0.115 | [13] 0.0561 | [14] 0.0199

Nc1nc(=S)c2[nH]cnc2[nH]1
inactive: 0.025 µM, library screen: screen2, EWS-FLI1 expression: high (no doxycycline) 0.0835 | 0.025 µM, library screen: screen2, EWS-FLI1 expression: low (doxycycline-induced shRNA knockdown) 0.0155 | [5] 0.132 | [6] 0.0451 | [1] 0.0575 | [2] 0.137 | [7] 0.0679 | [8] 0.0691 | [9] 0.156 | [10] 0.137 | [11] 0.118 | [12] 0.102 | [4] 0.0456 | [14] -0.0263 | [15] 0.0258 | [16] 0.111 | [18] 0.0181 | [20] 0.027
active: [3] -0.318 | [13] -0.33 | [17] -0.323 | 25 µM, library screen: screen2, EWS-FLI1 expression: high (no doxycycline) -0.96 | 25 µM, library screen: screen2, EWS-FLI1 expression: low (doxycycline-induced shRNA knockdown) -0.163 | [19] -0.834

O=C1c2ccccc2C(=O)c2c1ccc(O)c2O
inactive: [1] 0.112 | [2] -0.0153 | [3] 0.111 | [4] 0.0328

Cc1c(C)c2c(c(C)c1O)CCC(C)(CN1CCN(c3cc(N4CCCC4)nc(N4CCCC4)n3)CC1)O2 (stereo not drawn)
inactive: [7] 0.267 | [8] 0.0318 | [13] 0.186 | [14] 0.0468

CCCCc1nc(Cl)c(CO)n1Cc1ccc(-c2ccccc2-c2nn[nH]n2)cc1
inactive: [1] 0.109 | [2] -5.6e-05 | [3] 0.046 | [4] 0.108

NCCCCNS(=O)(=O)c1cccc2c(Cl)cccc12
active: [7] -0.151

COc1cc(CN2CCN(Cc3cccnc3)CC2)cc(OC)c1OC
inactive: [1] 0.0843 | [2] 0.0394 | [3] 0.126 | [4] 0.144

C[C@@H]1O[C@@H](O[C@H]2[C@H](Oc3cc(O)c4c(=O)cc(-c5ccc(O)cc5)oc4c3)O[C@H](CO)[C@@H](O)[C@@H]2O)[C@H](O)[C@H](O)[C@H]1O
inactive: [1] 0.0335 | [2] 0.0365 | [3] 0.122 | [4] 0.0962

COc1cc(CN2CCN(Cc3ccco3)CC2)cc(OC)c1
inactive: [1] -0.0146 | [2] 0.0935 | [3] 0.0118 | [4] 0.0977

Nc1nc2ccc(Cl)cc2c2nc(-c3ccco3)nn12
inactive: [7] 0.0906 | [8] 0.0622 | [13] 0.0284 | [14] 0.0389

OC1C(O)C(O)C(O)C(O)C1O (stereo not drawn)
inactive: [1] 0.0555 | [2] 0.00677 | [3] 0.089 | [4] 0.0209

CCC(C)N(C)C(=O)c1cc2ccccc2c(-c2ccccc2Cl)n1 (stereo not drawn)
inactive: [7] 0.179 | [8] 0.0729 | [13] 0.0258 | [14] 0.194

Cc1c(N(C)CS(=O)(=O)O)c(=O)n(-c2ccccc2)n1C
inactive: [1] 0.134 | [2] 0.0871 | [3] 0.0768 | [4] 0.151

C[C@@H]1CCN(C(=O)CC#N)C[C@@H]1N(C)c1ncnc2[nH]ccc12
inactive: [5] -0.0507 | [6] 0.00355 | [9] -0.0226 | [10] 0.0313 | [11] 0.00705 | [12] 0.0526 | [15] 0.0331 | [16] 0.0539 | [17] 0.0415 | [18] 0.0389 | [19] 0.0334 | [20] -0.0228

CC(NCCC(c1ccccc1)c1ccccc1)c1ccccc1 (stereo not drawn)
inactive: [1] 0.0634 | [2] 0.0619 | [3] 0.136 | [4] 0.117

NCCCCC(N)C(=O)NC(Cc1c[nH]c2ccccc12)C(=O)NC(CCCCN)C(=O)O (stereo not drawn)
inactive: [1] 0.0147 | [2] 0.0512 | [3] 0.141 | [4] 0.0544

CN1CCN(CCCN2c3ccccc3Sc3ccc(C(F)(F)F)cc32)CC1
inactive: [1] 0.0503 | [2] 0.0773 | [7] 0.145 | [8] 0.07 | [3] 0.188 | [4] 0.156 | [13] 0.154 | [14] 0.0393

COC(=O)Nc1nc2ccc(C(=O)c3cccs3)cc2[nH]1
active: [1] -0.83 | [2] -0.22 | [7] -1.12 | [8] -0.105 | [3] -3.46 | [4] -1.25 | [13] -2.04 | [14] -0.699

Nc1ncc2[nH]cnc2n1
active: [3] -0.0954

COc1ccc(OC)c(C(O)CNC(=O)CN)c1 (stereo not drawn)
inactive: [1] 0.129 | [2] 0.155 | [3] 0.0539 | [4] 0.125

C=CC(=O)Nc1cc2c(Nc3ccc(F)c(Cl)c3)ncnc2cc1OCCCN1CCOCC1
active: [17] -0.188 | [19] -0.199 | [20] -0.281

COC(=O)C[C@H]1C(C)(C)C2(O)OC34CC2C(=O)[C@]1(C)C3CC[C@]1(C)C4=CC(=O)O[C@H]1c1ccoc1 (stereo partly drawn)
inactive: [1] -0.0307 | [2] -0.0369 | [3] 0.093 | [4] 0.0811

CNC[C@H](O)c1ccc(O)c(O)c1
inactive: [5] 0.00528 | [6] 0.0495 | [1] 0.106 | [2] 0.0509 | [7] 0.169 | [8] 0.0474 | [9] 0.079 | [10] 0.091 | [11] 0.0631 | [12] 0.0893 | [3] 0.183 | [4] 0.209 | [13] 0.122 | [14] 0.099 | [15] 0.0488 | [16] 0.0524 | [17] -0.00361 | [18] 0.0638 | [19] 0.098 | [20] 0.00995

COc1ccc(OC)c(C2NC(=O)NC(C)=C2C(=O)Nc2ccccc2Cl)c1 (stereo not drawn)
inactive: [1] 0.0793 | [2] 0.107 | [3] 0.0921 | [4] 0.116

OC(CNCC(O)C1CCc2cc(F)ccc2O1)C1CCc2cc(F)ccc2O1 (stereo not drawn)
inactive: [5] 0.0679 | [6] 0.105 | [9] 0.0226 | [10] 0.0787 | [11] 0.018 | [12] 0.0333 | [15] 0.0512 | [16] 0.073 | [17] 0.0254 | [18] 0.116 | [19] -0.073 | [20] -0.0764
